Reference: ChEMBL document CHEMBL4888484, “Replenishing the malaria drug discovery pipeline: Screening and hit evaluation of the MMV Hit Generation Library 1 (HGL1) against asexual blood stage Plasmodium falciparum ,using a nano luciferase reporter read-out” (2022)
Hit rate of the full screen: of about 150,000 compounds, about 540 (0.36%) showed an effect of 50% or more. The list shows a part of the results.

The molecules below were run on Plasmodium falciparum (assay: Primary screen in NF54 nanoGlo assay, in single point, at 2uM, 72h; a lower Z score goes with more inhibition). Conditions: timepoint 72 hour.
Format: functional, Erythrocyte
In the case of `O=C(O)c1cccc(N2CCCc3occc3C2)n1`, the “% Inhibition” value is reported as 12% and the Z score is reported as -1.57.
`CCc1ncnc(N2CC(NC3COC3)C2)c1F` was tested, and the “% Inhibition” value was -4% and the Z score was 0.63.
For `CS(=O)(=O)c1ccccc1N1CCC[C@H]1c1ccsc1`, the “% Inhibition” value was -6% and the Z score was 0.54.
With `Cc1nc2ccc(-c3ccc(C(=O)N[C@H]4CS(=O)(=O)C[C@@H]4O)cc3)cn2n1` the “% Inhibition” value was -27% and the Z score was 4.69.
For `NC(=O)c1ccsc1NC(=O)Cn1ccnc1`, the “% Inhibition” value was -9% and the Z score was 1.43.
For `COc1cccc(F)c1C(=O)N(C)CC[C@H]1CCCCO1`, the “% Inhibition” value was -21% and the Z score was 2.39.
In the case of `Clc1cnc(NCCc2noc(C3CC3)n2)nc1`, the “% Inhibition” value is reported as -10% and the Z score is reported as 1.31.
With `CCOc1ccccc1NC(=O)CC(=O)N(CC)CCN1CCCCCC1` the “% Inhibition” value was -2% and the Z score was 0.49.
With `COCCn1nnnc1[C@]1(N(C)C)CCN(C(=O)c2cc(C3CC3)[nH]n2)C1` the “% Inhibition” value was -12% and the Z score was 1.54.
For `FC(F)(F)CCCCNc1ncccn1`, the “% Inhibition” value was -1% and the Z score was 0.25.
With `COc1ccc(Cc2nc([C@H](O)c3ccccc3)n(CC(C)(C)O)n2)cc1` the “% Inhibition” value was 10% and the Z score was -1.98.
For `CCN(CC)C(=O)C1CCCN(C2CCC(=O)N(Cc3cc4c(cc3Cl)OCO4)CC2)C1` (stereo unspecified), the “% Inhibition” value was -4% and the Z score was 0.71.
For `O=C(COc1ccc(Cl)cc1Cl)N[C@H](CCC(=O)OCc1ccccc1)C(=O)OCc1ccccc1`, the “% Inhibition” value was -7% and the Z score was 0.87.
With `COc1ccc(Nc2nc(N3CCOCC3)nc(N3CCCc4ccccc43)n2)cc1` the “% Inhibition” value was -3% and the Z score was 0.53.
With `CCCc1cccc(C(C)C)c1NC(=O)N1CCC[C@H]1C(=O)N(CC)CC` the “% Inhibition” value was -13% and the Z score was 1.82.
In the case of `CNC(=O)c1cccc(-c2noc(C3CN(Cc4ccc(Br)cc4)C3)n2)c1`, the “% Inhibition” value is reported as -3% and the Z score is reported as 0.33.
`CCOc1cc(CNC(=O)c2sc(N3CCCC3=O)nc2C(C)C)cc(OCC)c1OCC` was tested, and the “% Inhibition” value was -11% and the Z score was 0.99.
For `COc1ccc(CNC(=O)c2ccc(C)c(-n3c(C)nc4cccnc43)c2)c(OC)c1`, the “% Inhibition” value was -14% and the Z score was 2.22.
`Cc1ncnc(N2CCC(c3nnc(CN4CCC(O)CC4)n3C)CC2)c1C` was tested, and the “% Inhibition” value was 0% and the Z score was -0.03.
`Cn1nccc1C(=O)N1CCC[C@H]1c1cccc(F)c1` was tested, and the “% Inhibition” value was -14% and the Z score was 2.69.
In the case of `CC(C)(C)n1cc(C(=O)O[C@@H]2CCC[C@H]2n2cccn2)cn1`, the “% Inhibition” value is reported as -13% and the Z score is reported as 1.99.
For `CCN(CCn1cccn1)C1CCN(Cc2ccco2)CC1`, the “% Inhibition” value was -2% and the Z score was 0.27.
`Cc1ccc(C)c(OCc2cc(C(=O)N[C@@H](C)Cc3cccc(C)n3)no2)c1` was tested, and the “% Inhibition” value was -16% and the Z score was 2.06.
In the case of `O=C(CC1CCOCC1)Nc1nnc(C2CCOCC2)s1`, the “% Inhibition” value is reported as 3% and the Z score is reported as -0.31.
With `O=C1CCc2cc(C(=O)N3CCN(c4cnccn4)CC3)ccc2N1` the “% Inhibition” value was 0% and the Z score was -0.06.
With `CCCN1c2ccccc2NC2C1C(C(C)=O)C(=O)N2c1ccccn1` (stereo unspecified) the “% Inhibition” value was 6% and the Z score was -0.76.
`CN(C(=O)c1ccc(-c2ccc3c(c2)OCCO3)s1)C1CCCCC1` was tested, and the “% Inhibition” value was -14% and the Z score was 2.04.
With `Cc1ccc(NC(=O)CCC(=O)N(c2ccccc2)c2ccccc2)cc1Cl` the “% Inhibition” value was 9% and the Z score was -1.38.
`CC(C)C(=O)N1CCC[C@H](S(=O)(=O)N2CCc3ccccc32)C1` was tested, and the “% Inhibition” value was -4% and the Z score was 0.44.
`CN(C[C@H]1CCOC1)C(=O)Nc1cc(F)cc(F)c1` was tested, and the “% Inhibition” value was -17% and the Z score was 2.2.
For `CCc1nnc2n1C[C@@H](NCc1cn(C)nc1-c1ccncc1)CC2`, the “% Inhibition” value was -2% and the Z score was 0.17.
`O=S(=O)(c1cccc2nsnc12)N(Cc1cccc(OC[C@H]2CCOC2)c1)C1CC1` was tested, and the “% Inhibition” value was -14% and the Z score was 1.84.
`COc1nc(NS(=O)(=O)c2ccc(Cl)c(F)c2Cl)n[nH]1` was tested, and the “% Inhibition” value was -13% and the Z score was 1.34.
With `CCC(C)C(NC(=O)OC(C)(C)C)c1nnc(S(=O)(=O)Cc2cccc(F)c2)o1` (stereo unspecified) the “% Inhibition” value was -4% and the Z score was 0.37.
`Cc1nc(NC(=O)Cc2noc3ccccc23)sc1-c1ccccn1` was tested, and the “% Inhibition” value was -30% and the Z score was 5.94.
`C[C@@H](c1cnn(C)c1)N(C)C(=O)c1occ2c1CCC2` was tested, and the “% Inhibition” value was -6% and the Z score was 1.
For `C=CCO[C@H]1CCN(C(=O)c2cccc3cc[nH]c23)C1`, the “% Inhibition” value was -7% and the Z score was 0.92.
For `COC(=O)CO[C@@H]1CO[C@H]2[C@@H]1OC[C@@H]2NS(=O)(=O)c1ccc2ccccc2c1`, the “% Inhibition” value was -13% and the Z score was 1.62.
For `Cn1cc(C#N)cc1C(=O)N[C@H]1CCOC[C@@H]1OCc1cscn1`, the “% Inhibition” value was -5% and the Z score was 0.94.
In the case of `CCOc1cc2cc(c1)C(=O)N(C)CC(=O)N[C@@H]1CN(C(=O)CN3CCOC3=O)CC[C@@H]1OCc1cccc(c1)O2`, the “% Inhibition” value is reported as -17% and the Z score is reported as 2.17.
For `Cc1cccc(N2CCN(C(=O)[C@@H]3Cc4ccccc4C(=O)O3)CC2)c1C`, the “% Inhibition” value was -6% and the Z score was 0.64.
`CCc1nc(O)c(C(=O)N2CCCC[C@H]2c2cncn2CC)cc1C` was tested, and the “% Inhibition” value was 9% and the Z score was -1.22.
`Cc1nn(Cc2ccon2)c(=O)c2ccccc12` was tested, and the “% Inhibition” value was -4% and the Z score was 0.62.
`NS(=O)(=O)c1ccc(CCNC(=O)c2ccc(N3CCOc4ccccc43)s2)cc1` was tested, and the “% Inhibition” value was 1% and the Z score was -0.13.
In the case of `O=C(O)C[C@H]1CCCN(S(=O)(=O)CCc2ccccc2Br)C1`, the “% Inhibition” value is reported as -2% and the Z score is reported as 0.29.
`O=S1(=O)C[C@H](N2CCN(c3ccccn3)CC2)[C@@H](S(=O)(=O)c2ccccc2)C1` was tested, and the “% Inhibition” value was -6% and the Z score was 0.79.
In the case of `Cc1ncsc1CCN(C)Cc1ccccn1`, the “% Inhibition” value is reported as -19% and the Z score is reported as 2.48.
With `C[C@H](NC(=O)c1cc2n(n1)CCCC2)c1ccccc1` the “% Inhibition” value was -30% and the Z score was 3.47.
With `Cc1cccnc1NC(=O)N[C@H]1CCC(=O)NC1` the “% Inhibition” value was -12% and the Z score was 1.09.
With `COc1ccc(CNC(=O)N2CCc3[nH]c(-c4ccccc4)nc3C2)cc1` the “% Inhibition” value was -14% and the Z score was 2.04.
With `C[C@@H]1CN(C(=O)c2nn(C)cc2Cl)CC[C@]1(C)O` the “% Inhibition” value was -4% and the Z score was 0.64.
In the case of `CNC(=O)c1nc(-c2ccccc2)n2c1CCN(C(=O)NCCc1ccccc1)CC2`, the “% Inhibition” value is reported as -18% and the Z score is reported as 2.12.
`COCCOCC(=O)NC[C@@]12CCCC=C1NC(=O)CC2` was tested, and the “% Inhibition” value was 3% and the Z score was -0.41.
